Experimental data reported in the BET-seq Pho4 binding data (Le et al. 2018).
Some of the results follow. These are noisy estimates, calculated here from bound and input reads.

Molecular target: T1, Pho4 (S. cerevisiae) (UniProt P07270)
T1 sequence: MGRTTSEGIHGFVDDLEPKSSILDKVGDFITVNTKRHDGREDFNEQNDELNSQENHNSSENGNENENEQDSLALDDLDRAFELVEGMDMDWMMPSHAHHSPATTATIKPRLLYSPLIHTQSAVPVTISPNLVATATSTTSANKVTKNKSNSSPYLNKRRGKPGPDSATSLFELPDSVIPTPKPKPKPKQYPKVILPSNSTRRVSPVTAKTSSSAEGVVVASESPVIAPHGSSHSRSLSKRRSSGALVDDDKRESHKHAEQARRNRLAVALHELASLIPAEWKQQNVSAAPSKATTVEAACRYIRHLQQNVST
Test: relative binding free energy (BET-seq); higher = weaker binding
Settings: reference: library average

Row | Sequence | relative binding free energy [kJ/mol]
1 | TGCGTCACGTGTAGGG | 0.126
2 | GCGATCACGTGTGTTG | 0.795
3 | TGGTTCACGTGTATAG | 1.05
4 | AGTGTCACGTGGCAGT | 0.251
5 | GTTATCACGTGTGTGG | 1.13
6 | GTAGTCACGTGGATAG | 0.795
7 | GCGCGCACGTGAGGGG | 0
8 | AGGTACACGTGGTAGG | -0.335
9 | ATAGTCACGTGGCGGA | 0.293
10 | TGTGGCACGTGGGCGA | -0.711
11 | TGGATCACGTGTATTC | 0.418
12 | TGCTGCACGTGGGGCA | -0.418
13 | GGTACCACGTGTGGTG | -0.167
14 | AGCGTCACGTGGTATG | -0.126
15 | TTTTTCACGTGGGCGC | 0.879
16 | TGGGGCACGTGACGGA | 0.126
17 | GTGAGCACGTGGAAAT | 0.544
18 | TCTTTCACGTGGTTAA | 0.795
19 | TGTCGCACGTGATTAT | 0.377
20 | CGCGTCACGTGAGAGG | 0.962
21 | GTGGCCACGTGATTGG | 0.418
22 | TGGCCCACGTGGCGGG | -1.46
23 | GTGCGCACGTGCAGGG | -0.418

Row | Sequence | relative binding free energy [kJ/mol]
24 | TAGGTCACGTGAGGCC | 1.26
25 | GTGTTCACGTGGGCTA | 0.544
26 | GTGGTCACGTGTCTTG | 0.837
27 | GTTGCCACGTGTATAG | 0.251
28 | TTGAACACGTGTTAGA | -0.0418
29 | CGTCACACGTGTTGTT | 0.293
30 | TGATGCACGTGTAAGG | 0.628
31 | TTATGCACGTGTTTAC | -0.418
32 | AATATCACGTGTGAGG | 0.711
33 | ATTCTCACGTGGAGGG | 0.628
34 | GAGTACACGTGACTGG | 1.17
35 | GAGAACACGTGGGTTT | -0.0837
36 | TTTATCACGTGAGGTC | 1.13
37 | GGGTACACGTGAAGTG | 1.34
38 | GGTAACACGTGGGAGC | 0
39 | TTCGGCACGTGAGCGT | 0.126
40 | AAGATCACGTGTTAAT | 0.251
41 | GTTATCACGTGCCGGT | 0.837
42 | TGGTGCACGTGGAACT | 0.418
43 | TGGCGCACGTGATAAG | 0.628
44 | GAACTCACGTGTGGGT | 1.17
45 | TTTAACACGTGTTTCT | 0
46 | GGAATCACGTGATTTG | 1.8

Row | Sequence | relative binding free energy [kJ/mol]
47 | TGGACCACGTGGGTAA | -0.753
48 | AGGAGCACGTGAGGGC | 0.711
49 | GAATTCACGTGTTAAT | 1.13
50 | CGGCTCACGTGTAGTG | 0.879
51 | GAGTTCACGTGGTCAG | 0.628
52 | CGGGGCACGTGAATAG | 0.669
53 | CAATGCACGTGTTTGT | 0.0418
54 | TTGCGCACGTGGTGGA | -0.46
55 | GGCTGCACGTGGGAGA | 0.0418
56 | AAGTACACGTGTGCGG | 0.0418
57 | GAAGGCACGTGTAGCG | -0.418
58 | GTGGTCACGTGTCAAT | 0.46
59 | AAGATCACGTGGATGT | 1
60 | TTCAGCACGTGGTGGT | -0.377
61 | AAGTTCACGTGGGTTG | 0.335
62 | GGTCTCACGTGGGAGC | 0.753
63 | GGGTGCACGTGAATAA | 1.38
64 | GGACGCACGTGTGGGC | -0.335
65 | TGTTCCACGTGGTTAA | 0.251
66 | GTGGCCACGTGGAAGA | 0.293
67 | GTGGACACGTGGGGGT | -0.335
68 | GGCATCACGTGGTGGA | 0.628
69 | AGTGTCACGTGTATTA | 0.795

Row | Sequence | relative binding free energy [kJ/mol]
70 | AGAAACACGTGTTGTT | 0
71 | GGGAGCACGTGGCTAG | -0.669
72 | TTGTGCACGTGGAGTG | 0.126
73 | TGTGGCACGTGTAAAA | 0.502
74 | TGGGGCACGTGTCAAT | -0.795
75 | GAGTGCACGTGGAAAA | 1.26
76 | TGTTACACGTGGTGCG | 0.753
77 | TACGTCACGTGTGTTT | 0.628
78 | GTAGGCACGTGGATCT | 0
79 | TGTTACACGTGATTGT | 0.962
80 | TGTAGCACGTGTGGAG | 0.167
81 | CTTGGCACGTGGTCTG | -1.05
82 | TGTGTCACGTGCGACG | 0.251
83 | GATGACACGTGAAGGG | 1.84
84 | GTCTGCACGTGGTGTA | 0
85 | GTTCGCACGTGCGGTT | 0.126
86 | TTCGTCACGTGGTTCG | -0.502
87 | GTAGCCACGTGGTATT | 0.126
88 | GACGTCACGTGCGGGT | -0.126
89 | TAGTGCACGTGTTGTA | -0.0418
90 | GGAATCACGTGGCTTG | 0.293
91 | TTCGTCACGTGTGTCG | 0.753
92 | TAGTGCACGTGGAGTT | 0

Row | Sequence | relative binding free energy [kJ/mol]
93 | TAATGCACGTGGGCGT | -0.46
94 | GGTTACACGTGCTTTG | 0.46
95 | AGGATCACGTGATGAA | 1.76
96 | AGGGGCACGTGAAATA | 0.251
97 | GGTGACACGTGAATCG | 1.26
98 | CTGTACACGTGGTCGT | 0.251
99 | ATGGTCACGTGTATTA | 0.293
100 | TTGTACACGTGATTGA | 0.586
101 | TTGTTCACGTGTTGAA | 1.17
102 | TAATACACGTGTTTGG | -0.251
103 | TGCAACACGTGGTATT | -0.209
104 | TCAAGCACGTGGGAGT | -0.879
105 | GGTAGCACGTGGTGAC | -0.377
106 | AGGGACACGTGGGGAG | -0.46
107 | ATGAGCACGTGTGGAA | -0.293
108 | GGATTCACGTGTAAGA | 1.67
109 | GAGTACACGTGTGGTG | 0.544
110 | TGATTCACGTGGTCTA | 0.335
111 | AATGGCACGTGTTGGC | -0.502
112 | GGAGGCACGTGTGGAC | -0.628
113 | ATGTGCACGTGGGGGC | -0.962
114 | GTGTCCACGTGTCTGG | 0.795
115 | TTTATCACGTGATGTC | 0.628
